Measured values as given in the supplement of paper PMC3334620.
Over roughly 33,000 sequences, “E-score (-0.5 to 0.5)” has its median near -0.016; the highest 2% begin near 0.31. The list shows a part of the results.

What follows are sequences tested against Cst6 (UniProt P40535) (assay: PBM E-score (8-mer binding enrichment) (E-score (-0.5 to 0.5)); higher = stronger / more preferred TF binding; most listed sequences are background and not binding sites). Details: protein concentration: 200 nM; construct: GST-DNA-binding domain.
Procedure, shortened: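 The E-score, a modified Wilcoxon-Mann-Whitney statistic, was computed by the Universal PBM Analysis Suite for every ungapped eight-base word pooled with its reverse complement. Scans behind it were normalised with masliner after bound GST-tagged yeast transcription factors were detected with fluorescent anti-GST. The proteins, at about 100-200 nM, had been applied to universal all-10-mer Agilent arrays made double-stranded by primer extension.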

| Sequence | PBM E-score |
| --- | --- |
| AGTTGAGA | -0.143 |
| GGCGCCAA | 0.151 |
| CGTCAGTC | 0.269 |
| AAGTTTCA | 0.131 |
| CGCACACA | 0.0465 |
| GGCGGCCA | -0.112 |
| TATACTAA | 0.05 |
| ATATTCGG | 0.0167 |
| ATTTACGC | 0.129 |
| ATAGTAAC | 0.094 |
| GGACGCAA | 0.0196 |
| ATGCGTCC | -0.213 |
| ACAGTCAA | -0.0565 |
| ACGTTACT | 0.138 |
| CATTGTCG | 0.0137 |
| AACACAAA | 0.0222 |
| TCAAAGCA | -0.014 |
| GCGAGCTA | -0.0222 |
| AGAGTAAA | 0.0878 |
| CGCTACGA | -0.0135 |
| CGTGCCCC | -0.106 |
| CACAGGAG | -0.0229 |
| CTCGAACC | -0.0843 |
| CTGTGTGC | -0.0916 |
| TAACAGTA | 0.163 |

| Sequence | PBM E-score |
| --- | --- |
| CATTGTAG | 0.00951 |
| CTTGTTCC | -0.101 |
| GAACACTA | 0.049 |
| ATTGTTTA | 0.206 |
| AGGTATTG | 0.0278 |
| ACGACCTC | 0.128 |
| CCTCCAGC | -0.413 |
| ATATACAT | 0.16 |
| GAAACTAC | 0.0682 |
| CGTGTCAG | 0.0262 |
| AAATTCCT | 0.00077 |
| ATAGTTCG | 0.0128 |
| CTGTGAAA | 0.149 |
| CAGGCTAG | -0.344 |
| ACGCACGA | 0.194 |
| ATGTGGAC | -0.133 |
| CTACTTGA | 0.0439 |
| GCTCTAGA | -0.274 |
| ATGGACGA | 0.103 |
| GGCAGCCA | -0.243 |
| CCTTCTTA | -0.105 |
| CAGATCCC | -0.216 |
| CACAACCG | 0.143 |
| ATAAGATC | 0.16 |
| GGACCGGA | -0.307 |

| Sequence | PBM E-score |
| --- | --- |
| AGGACCGG | -0.421 |
| GAATATCA | 0.0496 |
| CGTGAAGA | 0.00552 |
| CTGGACGC | -0.244 |
| ACCAAAAC | 0.0609 |
| ACCGGGAG | -0.317 |
| ATGTCTCC | -0.135 |
| TAACACTA | 0.225 |
| TGAGATAA | 0.19 |
| CATGCTGG | -0.283 |
| CTCTGATC | -0.0257 |
| ATCCAAGA | 0.074 |
| CGCCAAAA | 0.113 |
| ACTTCGAC | 0.108 |
| GACGAGCA | -0.0395 |
| ACGACAGA | -0.00441 |
| GTGGAATA | 0.054 |
| ACTCCGCG | -0.0486 |
| ACCGGCGC | 0.0961 |
| ATGTTGTG | 0.101 |
| CATTCTTA | 0.0912 |
| AGGAACTG | -0.254 |
| ACCGCCAA | -0.0862 |
| TATTCCAA | 0.0973 |
| TCGACCAA | 0.0787 |

| Sequence | PBM E-score |
| --- | --- |
| GTGGCGTA | 0.149 |
| GCGTAGAC | -0.149 |
| CTGTTACC | -0.117 |
| GGCCCAGA | -0.383 |
| AAGCCGAT | 0.139 |
| TTACAAAA | 0.256 |
| ATAATCAC | 0.228 |
| CCTCGTCC | -0.35 |
| CCTCTGAA | -0.187 |
| GGTATGAC | 0.191 |
| ATATGTTC | -0.0116 |
| CCGTGCTC | 0.00474 |
| AAAGAATG | 0.187 |
| GACCTGGA | -0.283 |
| AACCTCCT | -0.216 |
| GCCCCACC | -0.00672 |
| AGTGGCCC | -0.195 |
| CAATCCGA | 0.0251 |
| AGCCTAAC | -0.0372 |
| AGGTCATA | 0.168 |
| GGACTAAC | -0.139 |
| CAGTCGAG | -0.173 |
| ACATAAAT | 0.264 |
| CCGAGCTC | -0.189 |
| AGCAACAT | 0.0565 |

| Sequence | PBM E-score |
| --- | --- |
| CCAGTGCA | -0.185 |
| AGAAGATC | -0.0477 |
| CCCCGGGA | -0.266 |
| ACTACCCA | -0.231 |
| CCTGCGGC | -0.138 |
| AAACCACC | -0.0642 |
| CAGGCCGG | -0.3 |
| ACGAAATA | 0.129 |
| GCCGTACC | 0.213 |
| TAGATACA | 0.102 |
| AAGGCGTC | 0.201 |
| AACCACAG | -0.105 |
| GTCGAGGA | -0.131 |
| ACCATGCC | 0.0145 |
| GAAATATA | 0.254 |
| CAAGAGAG | -0.0559 |
| CGCCTGTC | -0.21 |
| CAGTCAGG | -0.173 |
| ATCGTCAG | 0.131 |
| CTACTGCA | -0.101 |
| ATCACTGA | 0.185 |
| ATTGTGAG | 0.0813 |
| AATAGACG | 0.18 |
| CCTCGCAG | -0.231 |
| ACGCCAAT | 0.223 |

| Sequence | PBM E-score |
| --- | --- |
| CCCTCATC | -0.302 |
| CATGCGAA | 0.111 |
| CTGTAAAG | -0.137 |
| CAGTCCGA | -0.133 |
| CCGTGGAG | -0.229 |
| CCTGCCCA | -0.254 |
| CTCACTAA | 0.204 |
| CTAATATC | 0.0804 |
| GCCAGATA | -0.0414 |
| ACCATCAA | 0.0154 |
| CCGTCAGC | 0.0302 |
| CCTATAGC | -0.145 |
| ACGTCATA | 0.494 |
| AACTGCCA | -0.155 |
| AGCGCATA | -0.0255 |
| CGCTCAGA | -0.08 |
| CCTTCGGA | -0.101 |
| AGCATACG | -0.0565 |
| ATCCCACG | -0.0387 |
| CTTAGGTC | -0.0809 |
| CGCAAGAA | 0.116 |
| CCGAGACG | -0.118 |
| AACTGCCG | 0.114 |
| GCAAGAAA | 0.147 |
| ATCGTATC | -0.0316 |

| Sequence | PBM E-score |
| --- | --- |
| AATACCGG | -0.0505 |
| AGTCCTTG | -0.195 |
| GATGGCAA | 0.0532 |
| GGACGGAC | -0.203 |
| TAAAGCTA | 0.0383 |
| CGCCGCTA | -0.0394 |
| AGTGCCCA | -0.148 |
| AACGGTCA | 0.0769 |
| GCAGGGCC | -0.233 |
| CGACTTTC | 0.022 |
| GCACAGTA | 0.171 |
| CATGGGAC | -0.159 |
| GGGAAACC | -0.0148 |
| AAATCCGG | -0.0279 |
| GAACCGAA | 0.17 |
| AAGTTGAC | 0.145 |
| CATCACCC | 0.308 |
| GGAGCAAC | -0.187 |
| ACAGCGCT | -0.00804 |
| CAAAAGCA | -0.0642 |
| GTGAAAAC | 0.0482 |
| AGCGAAGC | -0.145 |
